Assay results: PMC5505701, “Somatostatin binds to the human amyloid β peptide and favors the formation of distinct oligomers” (eLife, 2017)

B1: Cytosolic acyl CoA thioester hydrolase: human brain protein (protein, UniProt O00154 1-380, looked up)
Cytosolic acyl coenzyme A …: MKLLARALRLCEFGRQASSRRLVAGQGCVGPRRGCCAPVQVVGPRADLPPCGACITGRIMRPDDANVAGNVHGGTILKMIEEAGAIISTRHCNSQNGERCVAALARVERTDFLSPMCIGEVAHVSAEITYTSKHSVEVQVNVMSENILTGAKKLTNKATLWYVPLSLKNVDKVLEVPPVVYSRQEQEEEGRKRYEAQKLERMETKWRNGDIVQPVLNPEPNTVSYSQSSLIHLVGPSDCTLHGFVHGGVTMKLMDEVAGIVAARHCKTNIVTASVDAINFHDKIRKGCVITISGRMTFTSNKSMEIEVLVDADPVVDSSQKRYRAASAFFTYVSLSQEGRSLPVPQLVPETEDEKKRFEEGKGRYLQMKAKRQGHAEPQP
B2: Phosphoglycerate kinase 1: human brain protein (protein, UniProt P00558 2-417, looked up)
Phosphoglycerate kinase 1: SLSNKLTLDKLDVKGKRVVMRVDFNVPMKNNQITNNQRIKAAVPSIKFCLDNGAKSVVLMSHLGRPDGVPMPDKYSLEPVAVELKSLLGKDVLFLKDCVGPEVEKACANPAAGSVILLENLRFHVEEEGKGKDASGNKVKAEPAKIEAFRASLSKLGDVYVNDAFGTAHRAHSSMVGVNLPQKAGGFLMKKELNYFAKALESPERPFLAILGGAKVADKIQLINNMLDKVNEMIIGGGMAFTFLKVLNNMEIGTSLFDEEGAKIVKDLMSKAEKNGVKITLPVDFVTADKFDENAKTGQATVASGIPAGWMGLDCGPESSKKYAEAVTRAKQIVWNGPVGVFEWEAFARGTKALMDEVVKATSRGCITIIGGGDTATCCAKWNTEDKVSHVSTGGGASLELLEGKVLPGVDALSNI
B3: Centractin, beta: human brain protein (protein, UniProt P42025 1-376, looked up)
Beta-centractin: MESYDIIANQPVVIDNGSGVIKAGFAGDQIPKYCFPNYVGRPKHMRVMAGALEGDLFIGPKAEEHRGLLTIRYPMEHGVVRDWNDMERIWQYVYSKDQLQTFSEEHPVLLTEAPLNPSKNREKAAEVFFETFNVPALFISMQAVLSLYATGRTTGVVLDSGDGVTHAVPIYEGFAMPHSIMRVDIAGRDVSRYLRLLLRKEGVDFHTSAEFEVVRTIKERACYLSINPQKDEALETEKVQYTLPDGSTLDVGPARFRAPELLFQPDLVGDESEGLHEVVAFAIHKSDMDLRRTLFANIVLSGGSTLFKGFGDRLLSEVKKLAPKDIKIKISAPQERLYSTWIGGSILASLDTFKKMWVSKKEYEEDGSRAIHRKTF
B4: Peroxiredoxin-6: human brain protein (protein, UniProt P30041 2-224, looked up)
Peroxiredoxin-6: PGGLLLGDVAPNFEANTTVGRIRFHDFLGDSWGILFSHPRDFTPVCTTELGRAAKLAPEFAKRNVKLIALSIDSVEDHLAWSKDINAYNCEEPTEKLPFPIIDDRNRELAILLGMLDPAEKDEKGMPVTARVVFVFGPDKKLKLSILYPATTGRNFDEILRVVISLQLTAEKRVATPVDWKDGDSVMVLPTIPEEEAKKLFPKGVFTKELPSGKKYLRYTPQP
B5: ATP synthase subunit gamma, mitochondrial: human brain protein (protein, UniProt P36542 26-298, looked up)
ATP synthase F(1) complex …: ATLKDITRRLKSIKNIQKITKSMKMVAAAKYARAERELKPARIYGLGSLALYEKADIKGPEDKKKHLLIGVSSDRGLCGAIHSSIAKQMKSEVATLTAAGKEVMLVGIGDKIRGILYRTHSDQFLVAFKEVGRKPPTFGDASVIALELLNSGYEFDEGSIIFNKFRSVISYKTEEKPIFSLNTVASADSMSIYDDIDADVLQNYQEYNLANIIYYSLKESTTSEQSARMTAMDNASKNASEMIDKLTLTFNRTRQAVITKELIEIISGAAALD
B6: Mu-crystallin homolog: human brain protein (protein, UniProt Q14894 1-314, looked up)
Ketimine reductase …: MSRVPAFLSAAEVEEHLRSSSLLIPPLETALANFSSGPEGGVMQPVRTVVPVTKHRGYLGVMPAYSAAEDALTTKLVTFYEDRGITSVVPSHQATVLLFEPSNGTLLAVMDGNVITAKRTAAVSAIATKFLKPPSSEVLCILGAGVQAYSHYEIFTEQFSFKEVRIWNRTKENAEKFADTVQGEVRVCSSVQEAVAGADVIITVTLATEPILFGEWVKPGAHINAVGASRPDWRELDDELMKEAVLYVDSQEAALKESGDVLLSGAEIFAELGEVIKGVKPAHCEKTTVFKSLGMAVEDTVAAKLIYDSWSSGK
B7: GSTT2 protein: human brain protein (protein, UniProt P0CG29 2-244, looked up)
Glutathione S-transferase …: GLELFLDLVSQPSRAVYIFAKKNGIPLELRTVDLVKGQHKSKEFLQINSLGKLPTLKDGDFILTESSAILIYLSCKYQTPDHWYPSDLQARARVHEYLGWHADCIRGTFGIPLWVQVLGPLIGVQVPKEKVERNRTAMDQALQWLEDKFLGDRPFLAGQQVTLADLMALEELMQPVALGYELFEGRPRLAAWRGRVEAFLGAELCQEAHSIILSILEQAAKKTLPTPSPEAYQAMLLRIARIP
B8: Dihydropyrimidinase-related protein 5: human brain protein (protein, UniProt Q9BPU6 1-564, looked up)
Dihydropyrimidinase-related …: MLANSASVRILIKGGKVVNDDCTHEADVYIENGIIQQVGRELMIPGGAKVIDATGKLVIPGGIDTSTHFHQTFMNATCVDDFYHGTKAALVGGTTMIIGHVLPDKETSLVDAYEKCRGLADPKVCCDYALHVGITWWAPKVKAEMETLVREKGVNSFQMFMTYKDLYMLRDSELYQVLHACKDIGAIARVHAENGELVAEGAKEALDLGITGPEGIEISRPEELEAEATHRVITIANRTHCPIYLVNVSSISAGDVIAAAKMQGKVVLAETTTAHATLTGLHYYHQDWSHAAAYVTVPPLRLDTNTSTYLMSLLANDTLNIVASDHRPFTTKQKAMGKEDFTKIPHGVSGVQDRMSVIWERGVVGGKMDENRFVAVTSSNAAKLLNLYPRKGRIIPGADADVVVWDPEATKTISASTQVQGGDFNLYENMRCHGVPLVTISRGRVVYENGVFMCAEGTGKFCPLRSFPDTVYKKLVQREKTLKVRGVDRTPYLGDVAVVVHPGKKEMGTPLADTPTRPVTRHGGMRDLHESSFSLSGSQIDDHVPKRASARILAPPGGRSSGIW
B9: Medium-chain specific acyl-CoA dehydrogenase: human brain protein (protein, UniProt P11310 26-421, looked up)
Medium-chain specific …: KANRQREPGLGFSFEFTEQQKEFQATARKFAREEIIPVAAEYDKTGEYPVPLIRRAWELGLMNTHIPENCGGLGLGTFDACLISEELAYGCTGVQTAIEGNSLGQMPIIIAGNDQQKKKYLGRMTEEPLMCAYCVTEPGAGSDVAGIKTKAEKKGDEYIINGQKMWITNGGKANWYFLLARSDPDPKAPANKAFTGFIVEADTPGIQIGRKELNMGQRCSDTRGIVFEDVKVPKENVLIGDGAGFKVAMGAFDKTRPVVAAGAVGLAQRALDEATKYALERKTFGKLLVEHQAISFMLAEMAMKVELARMSYQRAAWEVDSGRRNTYYASIAKAFAGDIANQLATDAVQILGGNGFNTEYPVEKLMRDAKIYQIYEGTSQIQRLIVAREHIDKYKN
B10: Heat shock protein, 60 kDa, mitochondrial: human brain protein (protein, UniProt P10809 27-573, looked up)
60 kDa heat shock protein, …: AKDVKFGADARALMLQGVDLLADAVAVTMGPKGRTVIIEQSWGSPKVTKDGVTVAKSIDLKDKYKNIGAKLVQDVANNTNEEAGDGTTTATVLARSIAKEGFEKISKGANPVEIRRGVMLAVDAVIAELKKQSKPVTTPEEIAQVATISANGDKEIGNIISDAMKKVGRKGVITVKDGKTLNDELEIIEGMKFDRGYISPYFINTSKGQKCEFQDAYVLLSEKKISSIQSIVPALEIANAHRKPLVIIAEDVDGEALSTLVLNRLKVGLQVVAVKAPGFGDNRKNQLKDMAIATGGAVFGEEGLTLNLEDVQPHDLGKVGEVIVTKDDAMLLKGKGDKAQIEKRIQEIIEQLDVTTSEYEKEKLNERLAKLSDGVAVLKVGGTSDVEVNEKKDRVTDALNATRAAVEEGIVLGGGCALLRCIPALDSLTPANEDQKIGIEIIKRTLKIPAMTIAKNAGVEGSLIVEKIMQSSSEVGYDAMAGDFVNMVEKGIIDPTKVVRTALLDAAGVASLLTTAEVVVTEIPKEEKDPGMGAMGGMGGGMGGGMF
B11: HSD10: human brain protein, known Aβ interactor (protein, UniProt Q99714 2-261, looked up)
3-hydroxyacyl-CoA …: AAACRSVKGLVAVITGGASGLGLATAERLVGQGASAVLLDLPNSGGEAQAKKLGNNCVFAPADVTSEKDVQTALALAKGKFGRVDVAVNCAGIAVASKTYNLKKGQTHTLEDFQRVLDVNLMGTFNVIRLVAGEMGQNEPDQGGQRGVIINTASVAAFEGQVGQAAYSASKGGIVGMTLPIARDLAPIGIRVMTIAPGLFGTPLLTSLPEKVCNFLASQVPFPSRLGDPAEYAHLVQAIIENPFLNGEVIRLDGAIRMQP
B12: NAD-dependent deacetylase sirtuin-2: human brain protein (protein, UniProt Q8IXJ6 2-389, looked up)
NAD-dependent protein …: AEPDPSHPLETQAGKVQEAQDSDSDSEGGAAGGEADMDFLRNLFSQTLSLGSQKERLLDELTLEGVARYMQSERCRRVICLVGAGISTSAGIPDFRSPSTGLYDNLEKYHLPYPEAIFEISYFKKHPEPFFALAKELYPGQFKPTICHYFMRLLKDKGLLLRCYTQNIDTLERIAGLEQEDLVEAHGTFYTSHCVSASCRHEYPLSWMKEKIFSEVTPKCEDCQSLVKPDIVFFGESLPARFFSCMQSDFLKVDLLLVMGTSLQVQPFASLISKAPLSTPRLLINKEKAGQSDPFLGMIMGLGGGMDFDSKKAYRDVAWLGECDQGCLALAELLGWKKELEDLVRREHASIDAQSGAGVPNPSTSASPKKSPPPAKDEARTTEREKPQ
B13: Peroxiredoxin-2: human brain protein (protein, UniProt P32119 2-198, looked up)
Peroxiredoxin-2: ASGNARIGKPAPDFKATAVVDGAFKEVKLSDYKGKYVVLFFYPLDFTFVCPTEIIAFSNRAEDFRKLGCEVLGVSVDSQFTHLAWINTPRKEGGLGPLNIPLLADVTRRLSEDYGVLKTDEGIAYRGLFIIDGKGVLRQITVNDLPVGRSVDEALRLVQAFQYTDEHGEVCPAGWKPGSDTIKPNVDDSKEYFSKHN

System: oligomeric Aβ1-42 (biotin-oAβ1-42 bait)
Details: for Experiment I B-oAβ1-42/B Ratio: enrichment relative to biotin-only saturated negative control matrix, human frontal lobe digitonin extract, TMT, three biological replicates, pH 8.0, 4°C overnight

Molecule | Experiment I B-oAβ1-42/B Ratio | oAβ1-42 binding observed (in words) (experiment not given)
B1 | 8.38 | –
B2 | 6.61 | –
B3 | 7.87 | –
B4 | 6.69 | –
B5 | 8.57 | –
B6 | 7.65 | –
B7 | 6.00 | –
B8 | 7.05 | –
B9 | 6.39 | –
B10 | 5.68 | –
B11 | – | oAβ1-42 binders observed in this work
B12 | 6.68 | –
B13 | 6.00 | –
